Data taken from PubChem BioAssay AID686979 (National Center for Advancing Translational Sciences (NCATS), 2013).
Several values for one entry are separate records, joined by “and”; a condition that tells them apart may be missing. Equal entries are not always repeated. In all, about 420,000 compounds went through this assay and about 50,000 (12%) were called active. The shares of active, inactive and inconclusive entries below differ from those in the screen. The call rests on the fitted dose curve; in most records, active means well fitted inhibition curve with a large enough effect; inconclusive means small, poorly fitted or top-dose-only effect; inactive means flat fitted curve, though single readings scatter. Potencies of inconclusive entries are left out as doubtful fits.

test: qHTS for Inhibitors of human tyrosyl-DNA phosphodiesterase 1 (TDP1): qHTS in cells in presence of CPT; conditions: chicken DT40 Tdp1-/-;hTDP1 cells + 20 nM CPT, ATP luminescence, 48 h; activity change, negative = growth inhibition: at 46.2 µM (top of the series); further: nearly all actives have a fitted effect of over 55% in size
Method in brief: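 Cell growth measured by CellTiter-Glo luminescence after a minimum 48 h, 37 C compound exposure with 20 nM CPT in Tdp1-knockout DT40 cells stably expressing hTDP1, seeded 400/well; qHTS titration format.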
On the % scale 0 is the no-effect control and ±100 the full control effect; potency means the concentration at half of the fitted maximal effect; tags describe the fitted curve by direction and shape.

| Compound | Potency | activity change, negative = growth inhibition |
| --- | --- | --- |
| CCN1C(=NCc2cc(OC)c(OC)c(OC)c2)N[C@@H](c2cccc(C(F)(F)F)c2)C(C(=O)OC)=C1C | inconclusive [inhibitor, single point] | – |
| Nc1c(N(Cc2ccccc2)C(=O)COc2cccc(Cl)c2)c(=O)[nH]c(=O)n1Cc1ccccc1 | active: 20.6 µM | – |
| O=C1c2ccccc2-c2n[nH]c3cccc1c23 | active: 6.68 µM and active: 8.91 µM | – |
| COc1cccc(-c2nccc(-n3ccnc3)n2)c1 | inactive | – |
| CC(=O)Nc1ccc(SCCCC(=O)c2ccccc2)cc1 | inconclusive [inhibitor, single point] | – |
| FC(F)(F)c1ccc(/C=N/N2CCN(Cc3cccc4ccccc34)CC2)cc1 | inconclusive [inhibitor, single point] | – |
| CC1CN(CCc2ccccc2)c2nc3c(c(=O)n(CC(N)=O)c(=O)n3C)n2C1 (centres undefined) | – | inconclusive: 1.62% [inhibitor] |
| Cc1ccc(C(=O)Nc2ccccc2N2CCN(C(=O)C(C)C)CC2)cc1C | inconclusive [inhibitor, partial curve, poor fit] | – |
| O=C(c1ccc(C#CC2(O)CCCCC2)cc1)N1CCN(Cc2ccccc2)CC1 | inconclusive [inhibitor, single point] | – |
| CCn1nc(C)c(CCN(C)C(=O)Nc2cc(Cl)ccc2C)c1C | inactive | – |
| CC(C)(C)C1CCC(NC(=O)c2cnn3c2NC(=C2CC2)C=C3C(F)F)CC1 (centres undefined) | active: 10 µM | – |
| OCCNc1cc(Cl)ncn1 | inactive | – |
| CN(C(=O)CSc1nc2ccccc2o1)C1CCCCC1 | inconclusive [inhibitor, single point] | – |
| Cc1ccc(OCCNC(=O)CCNS(=O)(=O)c2ccc3ccccc3c2)cc1 | inconclusive [inhibitor, full curve, poor fit] | – |
| COc1cc(OC)c(OC)cc1CN1CCCC(C(=O)c2sccc2C)C1 (centres undefined) | inconclusive [inhibitor, single point] | – |
| CCCc1nc2oc3c(NCCN(C)C)ncnc3c2c2c1CCCC2 | active: 18.4 µM | – |
| CN(C)CC(C)(C)CNS(=O)(=O)CC12CCC(CC1=O)C2(C)C (centres undefined) | inactive | – |
| CN(CCO)C(=O)c1cn(C2CCN(Cc3cccc4ccccc34)CC2)nn1 | inactive | – |
| CCCC[C@@H]1CNCCN1CC1(c2ccccc2)CC1 | active: 11.6 µM | – |
| CCCCN(C)c1c(C)nc2ccc(C(=O)N(C)Cc3ccco3)cn12 | inconclusive [inhibitor, single point] | – |
| COCCNc1cc(-c2ccccc2)nc2cc(-c3cccc(F)c3)nn12 | inconclusive [inhibitor, single point] | – |
| Cc1noc(C)c1S(=O)(=O)N1CCC(C(=O)Nc2ccc(OC(F)(F)F)cc2)CC1 | inconclusive [inhibitor, single point] | – |

| Compound | Potency | activity change, negative = growth inhibition |
| --- | --- | --- |
| Cc1sc2ncnc(NCC3(N4CCOCC4)CCCCC3)c2c1C | active: 20.6 µM | – |
| COCCN1C=C(C(=O)OC)C(c2ccc(Cl)cc2)C(C(=O)OC)=C1 | inconclusive [inhibitor, single point] | – |
| Cc1ccc(CNC(=O)CCS(=O)(=O)c2cc(Br)cc3c2N(C(=O)C2CC2)CC3)cc1 | inconclusive [inhibitor, single point] | – |
| Cc1c(O)ccc2c(CN3CCN(C/C=C/c4ccccc4)CC3)cc(=O)oc12 | inconclusive [inhibitor, single point] | – |
| COc1ccc(OCCCC(=O)Nc2cc(S(=O)(=O)N3CCCCC3)ccc2C)cc1 | active: 20.6 µM | – |
| COc1ccc(NCC(=O)N/N=C/c2ccc3c(c2)OCCO3)cc1 | inconclusive [inhibitor, single point] | – |
| CC(C)(C)C(=O)NC1(C(F)(F)F)C(=O)Nc2c1c(=O)[nH]c(=O)n2Cc1ccco1 (centres undefined) | inactive | – |
| CN(C)C(CNC(C(=O)Nc1ccc(F)cc1)c1ccccc1)c1ccccc1 (centres undefined) | inactive | – |
| Cc1ccsc1/C=N/NC(=S)NCCc1ccccc1 | inactive | – |
| Cc1ccc(CNC(=O)c2ccc(N3CCC4(CC3)CC(c3cccc(Br)c3)=NO4)c(NC(=O)c3cccc(C)c3)c2)cc1 | inactive | – |
| O=C1CCCC2=C1C(c1ccc(O)cc1)c1c(ccc3ccccc13)N2 (centres undefined) | inconclusive [inhibitor, partial curve] | – |
| C[C@H](O)[C@@H]1C(=O)N2CCc3ccc(-c4ccccc4)cc3[C@@H]2C[C@@H]1N(C)C(=O)Nc1cc(Cl)cc(Cl)c1 | inactive | – |
| CC(C)[C@H](CO)Nc1nc(Nc2cc(N)cc(Cl)c2)c2ncn(C(C)C)c2n1 | active: 4.73 µM | – |
| O=C(Nc1ccc(Cl)cc1)N1CCN(c2ccc3nnc(-c4ccc(F)cc4)n3n2)CC1 | inconclusive [inhibitor, single point] | – |
| Cc1noc(C)c1S(=O)(=O)Nc1ccc2c(c1)C(=O)N([C@H](C)CO)C[C@H](C)[C@H](CN(C)S(=O)(=O)c1ccc(Cl)cc1)OCCCC[C@@H](C)O2 | inconclusive [inhibitor, single point] | – |
| CC(C)Oc1cccc(C(=O)C2CCCN(C(=O)c3ccc4c(c3)OCO4)C2)c1 (centres undefined) | inconclusive [inhibitor, partial curve] | – |
| CS(=O)(=O)c1ccc(C(=O)N(Cc2ccccc2)c2ccccc2)cc1 | inconclusive [inhibitor, single point] | – |
| COc1ccc(C(=O)N2CCCC(Nc3ccc(F)cc3)C2)c(OC)c1 (centres undefined) | inactive | – |
| O=C1OCCN1C(=O)[C@H]1[C@H](c2ccccc2)C(c2ccccc2)=NN1c1ccccc1 | – | inconclusive: -34.1% [inhibitor] |
| Cc1ccc(S(=O)(=O)N2CCN(C(=O)c3cc(C4CC4)nn3-c3ccccc3)CC2)cc1 | inconclusive [inhibitor, single point] | – |
| COc1ccc2c(c1OC)C(=O)N(c1cccc(/C=C/C(=O)O)c1)C2 | inconclusive [inhibitor, single point] | – |
| O=C(CCCCCn1c(=S)[nH]c2ccc(N3CCOCC3)cc2c1=O)NCCc1ccccc1 | inactive | – |
